Source: the supplement of paper PMC9334596
Several values for one entry are separate records, joined by “and”; a condition that tells them apart may be missing. Equal values may be shown once. Over roughly 5,300 compounds, “PER2::LUC luminescence relative to vehicle control” has its median near 0.96; the highest 2% begin near 1.3. This is one part of the list.

System: mPer2Luc MEF
Assay: PER2::LUC luminescence relative to vehicle control (fold of vehicle); higher = higher PER2::LUC reporter signal
Settings: 10 µM
Procedure, shortened: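 The reported values are PER2::LUC luminescence as fold of vehicle control in mouse embryonic fibroblasts carrying the mPer2Luc reporter. Cells were seeded at ~3000 per well in 384-well plates in DMEM with 10% FBS at 37 °C and 5% CO2, and compounds were added at 10 μM 48 h later. ONE-Glo luminescence was read 24 h and 30 h after treatment.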

Compound	PER2::LUC luminescence (time after treatment 24 h)	PER2::LUC luminescence (time after treatment 30 h)
CC(C)c1nc(N(C)S(C)(=O)=O)nc(-c2ccc(F)cc2)c1/C=C/[C@@H](O)C[C@@H](O)CC(=O)O	0.859 and 0.89	0.949 and 0.869
C[N+](C)(C)CCOP(=O)(O)OP(=O)([O-])OC[C@H]1O[C@@H](n2ccc(N)nc2=O)[C@H](O)[C@@H]1O	1.13 and 0.767	0.929 and 0.951
Nc1ccc(S(=O)(=O)NC(=O)c2ccccc2)cc1	0.813	0.842
CC(C)NCC(O)COc1cccc2ccccc12 (racemic)	0.894	1.11
CNC(=O)c1c(-c2ccc(F)cc2)oc2cc(N(CCO)S(C)(=O)=O)c(C3CC3)cc12	1.01	1.01
C[C@](N)(Cc1ccc(O)cc1)C(=O)O	1.08	1.18
CNCCNS(=O)(=O)c1cccc2cnccc12	1.21	1.1
O=C(COc1cccc2c(=O)[nH]ccc12)c1ccccc1	0.847	0.942
Cc1cccc(C)c1NC(=O)c1ccccc1C(=O)O	1.03	0.712
CCNC(=O)[C@H]1O[C@@H](n2cnc3c(N)nc(NCCc4ccc(CCC(=O)O)cc4)nc32)[C@H](O)[C@@H]1O	1.11 and 1.12	1.21 and 1.03
FCOC(C(F)(F)F)C(F)(F)F	0.874	0.956
CS(=O)(=O)c1ccc([C@@H](O)[C@@H](CF)NC(=O)C(Cl)Cl)cc1	1.02	0.924
CCN(CC)CCCC(C)Nc1ccnc2cc(Cl)ccc12 (configuration not stated)	0.908	0.93
CC(C)NC(=O)COc1cccc(-c2nc(Nc3ccc4[nH]ncc4c3)c3ccccc3n2)c1	0.78	0.739
CS(=O)(=O)Nc1cc2occ(NC=O)c(=O)c2cc1Oc1ccccc1	1.09	0.986
N[C@@H](CC(=O)O)C(=O)O	1.07 and 0.999	1.05 and 0.982
CNc1ncnc2c1ncn2[C@@H]1O[C@H](CO)[C@@H](O)[C@H]1O	0.974	1.04
Cc1ncc([N+](=O)[O-])n1C	1.13	0.998
CC(C)OC(=O)C(C(=O)OC(C)C)=C1SC=CS1	0.876	0.982
COc1cccc(CCc2ccccc2OCC(CN(C)C)OC(=O)CCC(=O)O)c1 (configuration not stated)	0.795	0.723
CN(C)C[C@H](O)Cn1c2ccc(Br)cc2c2cc(Br)ccc21 (racemic)	1.05	1.07
CC[C@]12C=CCN3CC[C@@]4(c5cc([C@@]6(C(=O)OC)C[C@@H]7C[C@@H](C(C)(F)F)CN(Cc8c6[nH]c6ccccc86)C7)c(OC)cc5N(C)[C@H]4[C@@](O)(C(=O)OC)[C@@H]1OC(C)=O)[C@@H]32	0.29	0.21
CCOc1cc(N2CCC(O)CC2)ccc1Nc1ncc2c(n1)N(C1CCCC1)CCC(=O)N2C	0.169	0.168

Compound	PER2::LUC luminescence (time after treatment 24 h)	PER2::LUC luminescence (time after treatment 30 h)
c1ccc2c(c1)CCCC2C1=NCCN1 (configuration not stated)	0.873 and 0.792	0.994 and 0.861
C[C@@H](O)[C@H]1C(=O)N2C(C(=O)O)=C(SCCNC=N)C[C@H]12	0.584	0.799
CN=c1nc(-c2ccccc2)n(-c2ccccc2)s1	1 and 1.21	0.972 and 1.08
Oc1ccc2c(c1)OC[C@]1(O)Cc3cc(O)c(O)cc3[C@H]21	0.742	0.607
CC(C)=CCC[C@](C)(O)[C@H]1CC[C@]2(C)[C@@H]1CC[C@@H]1[C@@]3(C)CCC(=O)C(C)(C)[C@@H]3CC[C@]12C	1.05	0.987
O=C(/C=C/c1ccc(O)c(O)c1)c1ccc(O[C@@H]2O[C@H](CO)[C@@H](O)[C@H](O)[C@H]2O)c(O)c1O	1.01	0.965
C=C(C)[C@@H]1CC[C@]2(C(=O)O)CC[C@]3(C)[C@H](CC[C@@H]4[C@@]5(C)CC[C@H](O)C(C)(C)[C@@H]5CC[C@]43C)[C@@H]12	0.994	0.925
CCCCCN(C)CCC(O)(P(=O)(O)O)P(=O)(O)O	0.993 and 1.05	1.11 and 0.887
O=C(O)C1=C[C@@H](O)[C@@H](O)[C@H](O)C1	1.04	0.972
C1N2CN3CN1CN(C2)C3	0.971 and 1.17	0.942 and 0.974
C[Se]CC[C@H](N)C(=O)O	0.995	1.04
Nc1ncnc2c1ncn2[C@@H]1O[C@H](CO)C[C@@H]1O	0.952	0.956
O=C(O)C1CCNCC1	0.958	0.804
CONC(=O)c1ccccc1Nc1cc(Nc2cc(C)nn2C(C)C)ncc1Cl	0.8	0.783
CC1(C)CCC(NC(=O)[C@@H](N)CCC(=O)O)CC1	0.948	1
CC(CCC(=O)O)[C@H]1CCC2C3C[C@H](O)[C@@H]4C[C@H](O)CC[C@]4(C)C3CC[C@@]21C (some centres not stated)	1.03	1
COc1cc(O)c(C(=O)/C=C/c2ccc(OC)c(O)c2)c(OC)c1	1.08	1
CN(C)c1cnccn1	0.575	1.03
C=CCc1ccc(O)c(OC)c1	0.904	0.736
OC[C@@H](O)[C@@H](O)[C@H](O)[C@H](O)CO	0.948 and 0.906	0.932 and 0.967
C=CC(N)CCC(=O)O (racemic)	1.06	0.823
CC1(C)CCC=[N+]1[O-]	0.993	0.977
CCCC[C@@H](C)/C=C(C)/C=C(\C)C(=O)NC1=C[C@@](O)(/C=C/C=C/C=C/C(=O)NC2=C(O)CCC2=O)[C@@H]2O[C@@H]2C1=O	0.951	0.934

Compound	PER2::LUC luminescence (time after treatment 24 h)	PER2::LUC luminescence (time after treatment 30 h)
C[C@H](NCc1ccc(OCc2cccc(F)c2)cc1)C(N)=O	1.22 and 1.67	1.5 and 1.51
CC(=O)OCC(=O)NCCCOc1cccc(CN2CCCCC2)c1	0.981	0.932
CCn1cc(C(=O)O)c(=O)c2cc(F)c(N3CCNCC3)nc21	1.12 and 0.972	1.18 and 0.886
C[C@@H]1CN(CCCn2c3ccccc3c3ccccc32)C[C@H](C)N1	0.66	0.661
CC(C(=O)O)c1cccc(Oc2ccccc2)c1 (configuration not stated)	1.05 and 1.13	0.945 and 1.02
O=C(O)CN(CCN(CC(=O)O)CC(=O)O)CC(=O)O.[Na+].[Na+].[Na+]	0.945	0.908
COc1ccccc1-c1coc2cc(O)ccc2c1=O	1.14	1.04
Oc1ccc(C2CNCCc3c2cc(O)c(O)c3Cl)cc1 (configuration not stated)		1.12 and 0.881 and 0.928
COC(=O)C[C@H]1C(C)(C)[C@@H](O)[C@@H]2CC3=C4C=C(OC)O[C@@H](c5ccoc5)[C@]4(C)CCC3[C@@]1(C)C2=O (some centres not stated)	1.1	1.13
COc1ccc2c(C)cc(=O)oc2c1	0.984	1.02
CC(C)[C@H](NC(=O)CCCCCN1C(=O)C=CC1=O)C(=O)N[C@@H](CCCNC(N)=O)C(=O)Nc1ccc(COC(=O)Oc2ccc([N+](=O)[O-])cc2)cc1	0.958	1.07
COc1cc(OC)c2c(=O)cc(-c3ccccc3)oc2c1	1.01	1.12
COc1cc(C(=S)N2CCOCC2)ccc1O	1.07	0.96
O=C1OC(c2ccc(O)cc2)(c2ccc(O)cc2)c2ccccc21	1.21	0.901
CCCc1ncc(C[n+]2ccccc2C)c(N)n1	1.03	0.845
OC[C@H]1OC(O)[C@H](O)[C@@H](O)[C@@H]1O (some centres not stated)	1	0.988
CNc1cc2c(Nc3cccc(Br)c3)ncnc2cn1	0.876	0.747
O=C1NC(=O)C(c2ccccc2[N+](=O)[O-])=C1Nc1ccc(O)c(Cl)c1	1.12	1.17
C=CC(C)(O)CCC=C(C)CCC=C(C)C (mixture of isomers)	0.972	0.961
COc1cc(C)c(C(=O)O)c(O)c1	0.887	0.965
CC(C)NCC(O)c1ccc(O)c(O)c1 (racemic)	1.25	0.982
COc1cc(F)c(C(C)C)cc1-c1ccc(C(F)(F)F)cc1CN1C(=O)O[C@H](c2cc(C(F)(F)F)cc(C(F)(F)F)c2)[C@@H]1C	1.22	1.14
CO[C@H]1/C=C/O[C@@]2(C)Oc3c(C)c(O)c4c(O)c(c(/C=N/N5CCN(C)CC5)c(O)c4c3C2=O)NC(=O)/C(C)=C\C=C\[C@H](C)[C@H](O)[C@@H](C)[C@@H](O)[C@@H](C)[C@H](OC(C)=O)[C@@H]1C	1 and 0.955	0.891 and 0.875

Compound	PER2::LUC luminescence (time after treatment 24 h)	PER2::LUC luminescence (time after treatment 30 h)
C[C@@H]1CC[C@H]2C(C)(C)[C@H]3C[C@@]12CC[C@@]3(C)O	1.11	1.04
Cc1c(Cl)cccc1Nc1ccccc1C(=O)O	0.934	1.2
CCCSc1ccc2[nH]c(NC(=O)OC)nc2c1	0.764	0.909
CC(C)Nc1cc(-c2c[nH]c(C(=O)N[C@H](CO)c3cccc(Cl)c3)c2)c(Cl)cn1	0.441	0.323
Cc1ccc(N(CC2=NCCN2)c2cccc(O)c2)cc1	0.996 and 0.875 and 0.571	0.905 and 0.86 and 0.96
CNc1ncnc2c1ncn2[C@H]1C[C@H](O)[C@@H](CO)O1	1.04	0.963
COc1cc2occ(-c3ccc(OC)c(OC)c3OC)c(=O)c2cc1OC	0.954	0.925
CNC[C@@H](O)c1ccc(O)c(O)c1	1.31	1.31
COc1ccc2[nH]cc(CCNC(=O)C3CC3)c2c1	0.901	0.938
CCc1ccc(CCOc2ccc(CC3SC(=O)NC3=O)cc2)nc1 (configuration not stated)	0.97 and 0.926 and 0.927	1.11 and 0.952 and 0.834
CC[n+]1c(/C=C/C=C2/N(C)c3ccccc3C2(C)C)sc2ccccc21	0.0519	0.0512
O=C(O)c1ccccc1-c1c2cc(I)c(=O)c(I)c-2oc2c(I)c(O)c(I)cc12	0.805	0.761
CC(C)(C)c1ccc(/C=C/C(=O)Nc2ccc3c(c2)OCCO3)cc1	0.942	1.11
CNC(=O)[C@H]1O[C@@H](n2cnc3c(N)ncnc32)[C@H](O)[C@@H]1O	1.11	1.03
CCCCCCCCCCCCCCCC(=O)NCC(COP(=O)([O-])OCC[N+](C)(C)C)OCC (racemic)	0.878	0.866
CC(=O)OCC(=O)[C@H]1CC[C@H]2[C@@H]3CC=C4C[C@@H](O)CC[C@]4(C)[C@H]3CC[C@]12C	0.899	0.876
CC1=CC(=O)[C@H]2C(C)(C)CCC[C@]2(C)[C@@]1(O)CCc1ccoc1	0.897	0.907
NCCCCC(=O)O	1.07 and 0.935	1.05 and 0.888
c1ccc(CC2=NCCN2)cc1	0.877	0.951
CC(C)(Oc1ccc(CCNC(=O)c2ccc(Cl)cc2)cc1)C(=O)O	0.844	0.913
